Experimental data taken from PubChem BioAssay (NCI).
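In this assay, cells in 96-well plates receive the compound at five concentrations for 48 hours. Endpoints are linearly interpolated between the surrounding concentrations. GI50 = concentration required for 50% inhibition of growth. The concentration for full growth arrest is given as TGI.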 Peptide text beside a SMILES is read from it. * marks the point of attachment. Boc = CC(C)(C)OC(=O)*; Bz = O=C(c1ccccc1)*

These molecules were tested on NCI-H322M lung (assay: NCI-60 cell line screen, 48 h).

Compound | TGI [µM] | GI50 [µM]
CCOC(=O)c1ccc2[nH]c(-c3ccc(S(=O)(=O)F)cc3)cc(=O)c2c1 | > 100 | 
Cc1cc(N(CCC#N)CCC#N)ccc1/C(N=Nc1ccc(Cl)cc1)=N\NC(=O)c1cc(Cl)ccc1O | > 100 | 
CC(NC(=O)C(Cc1ccc(OC(=O)c2ccccc2)cc1)NC(=O)OC(C)(C)C)C(=O)NC(Cc1ccccc1)C(=O)NCC(N)=O (stereo not given) (Boc-Y(Bz)AFG-NH2; configuration not given here) | 35.1 | 
O=S(=O)(O)c1c(Cl)cc(O)c2ncccc12 | > 100 | 
CC(NS(=O)(=O)c1ccc([N+](=O)[O-])cc1)C(=O)O (stereo not given) | > 100 | 
CCC(C)n1c(C)nc2c1C(=O)c1ccccc1C2=O (stereo not given) | > 100 | 
CCSCC1CC(O)(c2ccccc2)C(c2ccccc2)C(c2ccc(Cl)cc2)O1 (stereo not given) | 5.16 | 1.95
CN1C(=O)CC(c2cccc(C3CC(=O)N(C)C3=O)n2)C1=O (stereo not given) | > 100 | 
CC(=O)OC1=c2ccccc2=C(O)C2C1C=NN2C(C)=O (stereo not given) | > 100 | 
CN=C(N)N/N=C(\C)c1ccc2c(c1)Cc1cc(/C(C)=N/NC(N)=NC)ccc1-2 | 4.81 | 1.98
Cc1cccc(C(C)C)c1NC(=O)C(=O)CC(=O)c1sc(Nc2ccccc2Cl)nc1C | > 100 | 
O=C1c2ccccc2-c2c1c1ccccc1c(=O)n2CCCCNCCCn1c2c(c3ccccc3c1=O)C(=O)c1ccccc1-2 | 4.32 | 1.11
